Laboratory results published in PubChem BioAssay AID894 (National Center for Advancing Translational Sciences (NCATS), 2007).
Out of some 150,000 compounds screened, about 6,500 (4.3%) were called active. The shares of active, inactive and inconclusive entries below differ from those in the screen. Calls come from the whole dose curve; as a rule, active = well fitted inhibition curve with a large enough effect (not every such curve was filed as active); inconclusive = small, poorly fitted or top-dose-only effect, or another doubt; inactive = no such curve, though single readings can be large or run the other way. No potency is given beside an inconclusive call; the fits are too rough.

Target: 15-hydroxyprostaglandin dehydrogenase [NAD(+)] (Homo sapiens) (UniProt P15428)
Chain of UniProt P15428 (P15428 whole entry, looked up): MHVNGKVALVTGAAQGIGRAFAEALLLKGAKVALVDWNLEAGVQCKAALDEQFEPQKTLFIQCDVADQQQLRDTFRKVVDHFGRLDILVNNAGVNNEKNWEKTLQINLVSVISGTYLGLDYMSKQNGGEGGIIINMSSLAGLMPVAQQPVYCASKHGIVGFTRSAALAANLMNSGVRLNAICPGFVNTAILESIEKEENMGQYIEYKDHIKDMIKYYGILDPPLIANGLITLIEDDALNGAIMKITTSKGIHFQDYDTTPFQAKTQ
Test: qHTS Assay for Inhibitors of HPGD (15-Hydroxyprostaglandin Dehydrogenase)
Settings: purified HPGD, NADH fluorescence kinetic, PGE2 substrate; activity change, negative = inhibition: active compounds read low
Summary of the method: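 NADH formation kinetics: reaction with 30 uM PGE2 and 1 mM NAD+ (final), 20 nM enzyme, Tris-HCl pH 8 with Tween 20, after 15 min compound preincubation at room temperature. Fluorescence change, last versus first of five reads.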
% is set by controls: 0 for no effect and ±100 for the full control effect; potency is the fitted concentration of half-maximal effect; tags give direction and shape of the fitted curve.

Row | Compound | Potency | activity change, negative = inhibition
1 | Cc1ccc(-c2cc(C(=O)N3CCOCC3)c3ccccc3n2)cc1 | inconclusive [inhibitor, single point] | 
2 | COc1ccc(C2c3c(ccc4ccccc34)Oc3ncn4nc(-c5ccco5)nc4c32)cc1OC (configuration not stated) | inconclusive [inhibitor, single point] | 
3 | COc1cc2c(cc1OC)C1=NC(=O)CN1C(SCc1ccccc1)=N2 | inconclusive [inhibitor, partial curve] | 
4 | O=C(Nc1ccc(-c2nc3ccccc3o2)cc1)c1cccnc1 | inconclusive [inhibitor, single point] | 
5 | CC(C)Cn1c(SCc2nc3ccccc3c(=O)[nH]2)nc2ccccc2c1=O |  | inactive: -5.5%
6 | Cn1c2ccccc2c2ncn(Cc3ccco3)c(=O)c21 | inconclusive [inhibitor, single point] | 
7 | CCOc1c2ccc(C(=O)NCc3ccco3)cc2nn1CCOC | inconclusive [inhibitor, partial curve] | 
8 | CCn1c2ccccc2c2cc(/C=N/n3c(C)nnc3C)ccc21 | inconclusive [inhibitor, partial curve] | 
9 | CCCCn1c(=O)nc2n(-c3ccc(C)cc3)c3ccccc3cc-2c1=O | inconclusive [inhibitor, partial curve] | 
10 | O=C(CSc1nc2ccccc2s1)NNC(=S)Nc1ccc(Br)cc1 |  | inactive: -10.9%
11 | N#CC(C#N)=C1C=CC=CN1/C(=C\c1ccccc1)C(=O)c1cccs1 | inconclusive [inhibitor, partial curve] | 
12 | COc1ccc(-n2c(N)c(C(=O)NCc3ccco3)c3nc4ccccc4nc32)c(OC)c1 | inconclusive [inhibitor, partial curve] | 
13 | CCCCCCn1c(SCC(=O)OC)nc2c1c(=O)[nH]c(=O)n2C | active: 7.94 µM | 
14 | Clc1ccc(C2=CC(c3ccco3)n3ncnc3N2)cc1 (configuration not stated) | inconclusive [inhibitor, partial curve] | 
15 | Cn1c(=O)oc2cc(C(=O)c3ccccc3)ccc21 | inconclusive [inhibitor, partial curve, poor fit] | 
16 | C/C(=N\Nc1nnc(-c2ccccc2)c(-c2ccccc2)n1)c1cccc([N+](=O)[O-])c1 | active: 6.31 µM | 
17 | CCCn1c(SCc2cc(=O)[nH]c3ccccc23)nc2c1c(=O)n(C)c(=O)n2C |  | inactive: -4.88%
18 | CCOC(=O)c1cnn(-c2nc(-c3cccc(F)c3)cs2)c1C(F)(F)F | inconclusive [inhibitor, partial curve] | 
19 | CC(C)NC(=O)NC(=O)COc1ccc(Br)cc1Br | inconclusive [inhibitor, single point] | 
20 | Oc1ccc(Cl)cc1C=Nc1ccc2c3c(cccc13)CC2 | inconclusive [inhibitor, partial curve] | 
21 | Nc1nnc(SCC(=O)Nc2sc3c(c2C(=O)c2ccccc2)CCCC3)s1 |  | inactive: -19.8%
22 | COc1cccc(NCc2cc3c(C(C)(C)C)nn(-c4ccccc4)c3[nH]c2=O)c1 | inconclusive [inhibitor, partial curve] | 
23 | COc1ccc2nc3oc(C(=O)Nc4ccc(OC)c(OC)c4)cc3cc2c1 | inconclusive [inhibitor, partial curve] | 
24 | CCc1cc2c(=O)nc3n(c2s1)Cc1ccccc1/C3=C(/O)c1ccccc1Cl | inconclusive [inhibitor, partial curve, poor fit] | 

Row | Compound | Potency | activity change, negative = inhibition
25 | c1ccc2c(c1)[nH]c1nc(SCCN3CCOCC3)nnc12 | active: 31.6 µM | 
26 | Fc1cnc(N2CCN(c3ccccc3)CC2)nc1N1CCN(c2ccccc2)CC1 | inconclusive [inhibitor, partial curve] | 
27 | CCCN(CCC)C1=N/C(=C\c2ccco2)C(=O)N1c1ccccc1 | inconclusive [inhibitor, partial curve] | 
28 | COc1cccc(-n2nnc3c(=O)n(Cc4cccc(C)c4)cnc32)c1 | inconclusive [inhibitor, partial curve] | 
29 | COc1nc(-c2ccccc2)ccc1-c1noc(-c2ccccc2F)n1 | inconclusive [inhibitor, partial curve] | 
30 | Cc1nc2ccccc2n1CCC(=O)O |  | inactive: -4.59%
31 | COC(CNC(=O)c1ccc2c(c1)nc(C)n2-c1cccc(F)c1)OC | active: 11.2 µM | 
32 | O=C(O)c1cc2c(s1)-c1ccccc1CC2 | inconclusive [inhibitor, partial curve] | 
33 | COCCCNC(=O)COc1ccc(-c2nccc(-c3ccccn3)n2)cc1 | inconclusive [inhibitor, single point] | 
34 | Clc1cccc(Cl)c1/C=N\Nc1nccs1 | active: 7.94 µM | 
35 | COC(=O)c1cccc(N2C(=O)c3ccccc3S2(=O)=O)c1 | active: 25.1 µM | 
36 | Cc1ccc2c(CSc3nnc(N)s3)cc(=O)oc2c1 | active: 20 µM | 
37 | Brc1ccc(NC2=Nc3ccccc3CC2)cc1 | inconclusive [inhibitor, partial curve] | 
38 | CCOC(=O)N1CCN(C(=S)NC(=O)c2cncc(Br)c2)CC1 | inconclusive [inhibitor, single point] | 
39 | O=C(Cc1ccc(Cl)cc1)Nc1ccc(NC(=O)c2ccccc2)cc1 | inconclusive [inhibitor, single point] | 
40 | CC1(C)CC(=O)c2cc(OCC(=O)N3CCCCCC3)ccc2O1 | inconclusive [inhibitor, partial curve] | 
41 | COc1ncc2nc(C)c(=O)n(C)c2n1 |  | inactive: -16.8%
42 | COc1ccccc1/C=C/C(=O)OC(C)CN1CCOCC1 (configuration not stated) | inconclusive [inhibitor, partial curve] | 
43 | CC1=C(C(=O)OCC2CCCO2)C(c2ccncc2)C2=C(CC(C)(C)CC2=O)N1 (configuration not stated) | inconclusive [inhibitor, partial curve] | 
44 | Cc1ccc(NC(=O)c2ccccc2)cc1 |  | inactive: -8.93%
45 | O=C(C/C(=N/O)c1ccccc1O)C(F)F | active: 15.8 µM | 
46 | O=S(=O)(c1ccccc1)N1CCC[C@@]2(CCN(c3ccncc3)C2)C1 |  | inactive: 5.62%
47 | O=C(CSc1nc2cc(Cl)ccc2o1)c1cccs1 | active: 14.1 µM | 
48 | N#C/C(=C\c1ccc(O)c(O)c1)C(=O)NCCCc1ccccc1 | active: 31.6 µM | 

Row | Compound | Potency | activity change, negative = inhibition
49 | CCCCc1ccc(-c2csc(/C(C#N)=C\c3ccc(C)o3)n2)cc1 |  | inactive: -15.3%
50 | CC1(C)Cc2c(sc3c2c(=N)n(Cc2ccco2)c(=O)n3CC(=O)Nc2cccc(Cl)c2)CO1 | inconclusive [inhibitor, partial curve] | 
51 | CCOc1ccc(NC(=S)c2ccncc2)cc1 | inconclusive [inhibitor, single point] | 
52 | COc1ccc(C(=O)c2ccc(N3CCN(C4CC(=O)NC4=O)CC3)cc2)cc1F (configuration not stated) | inconclusive [inhibitor, partial curve] | 
53 | CCOc1ccc(CCN2C(=O)C3C4C=CC(C4)C3C2=O)cc1OCC (configuration not stated) |  | inactive: -12.4%
54 | O=C(N/N=C/c1ccccc1O)c1cc(-c2ccccc2)n[nH]1 |  | inactive: -16.7%
55 | Cc1ccc(C(=O)CSc2nsc(C)c2C#N)cc1 | active: 22.4 µM | 
56 | O=C1OCCC1Sc1nnc(-c2ccccc2Cl)n1Cc1ccccc1 (configuration not stated) |  | inactive: -2.19%
57 | Nn1c(=O)c2ccccc2n2c(SCc3ccccc3)nnc12 |  | inactive: -11.2%
58 | CN1/C(=C\C(=O)COC(=O)Cn2nnc(-c3ccccc3)n2)C(C)(C)c2ccccc21 | inconclusive [inhibitor, single point] | 
59 | CCn1c(SCC(=O)NCc2ccco2)nc2cccnc21 | inconclusive [inhibitor, partial curve, poor fit] | 
60 | COc1ccc2[nH]c3ccccc3c2c1 | inconclusive [inhibitor, single point] | 
61 | COc1cc(-c2nc3ccc4ccccc4c3c3c2CCC3)cc(OC)c1OC | inconclusive [inhibitor, partial curve] | 
62 | Cc1c(C(=O)NCc2ccc3c(c2)OCO3)cccc1[N+](=O)[O-] | inconclusive [inhibitor, partial curve] | 
63 | CC(=O)N(Cc1ccco1)c1nc(C(=O)Nc2ccc(Cl)cc2)c(C)s1 | inconclusive [inhibitor, partial curve] | 
64 | COc1ccc(S(=O)(=O)c2c(N)n(Cc3ccco3)c3nc4ccccc4nc23)cc1 | inconclusive [inhibitor, partial curve] | 
65 | Cc1ccc(-c2cn3cc([N+](=O)[O-])ccc3n2)cc1 |  | inactive: -11.8%
66 | CN(C(=O)c1ccc(-c2nn(C)c(=O)c3ccccc23)cc1)c1ccccc1 | active: 7.94 µM | 
67 | O=C1NCCCN1Cc1ccc(F)cc1 |  | inactive: -14.3%
68 | C=CCn1c(NC(=O)c2ccco2)c(S(=O)(=O)c2ccccc2)c2nc3ccccc3nc21 | inconclusive [inhibitor, partial curve] | 
69 | C=CCSc1nc(-c2ccccc2)c2cc(Cl)ccc2n1 | inconclusive [inhibitor, partial curve] | 
70 | Cc1nn2c(N3CCN(C(=O)c4ccco4)CC3)cc(C(C)(C)C)nc2c1-c1ccc(Cl)cc1 | inconclusive [inhibitor, full curve] | 
71 | S=c1[nH]nc(-c2ccc(Br)cc2)n1Cc1ccco1 | active: 25.1 µM | 
72 | c1ccc(Nc2nc(N3CCOCC3)c3ccccc3n2)cc1 | inconclusive [inhibitor, partial curve] | 
